# Results published in the supplement of paper PMC11417369.
# ± gives the standard deviation of the averaged measurements. This is one part of the list.
# Test system: PfAP2-G AP2 domain (GST-tagged)
# Experiment: gcPBM binding intensity (ln(normalized median fluorescence intensity)); higher = stronger DNA binding
# Summary of the method: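 In this array assay, P. falciparum DNA-binding domains with a GST tag, expressed in E. coli, were applied for 1 h to primer-extended double-stranded 36-bp intergenic genomic probes and negative controls on an Agilent 4 × 180k array. Bound protein was visualised with Alexa488 anti-GST antibody at 488 nm. Binding intensity is the highest Masliner-normalised natural-log median intensity across replicate spots of either probe orientation.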
row,Sequence,gcPBM binding intensity (ln)
1,GTTGCAATTAACACTAGTACATATAAGTAGTTTATT [XGTACX_site2063],10.9 ± 0.57
2,ATTGTTCTCCAAAAGTGTACGTATTATTTTTCTGGA [XGTACX_site1404],11.6 ± 0.76
3,TATTAATCTTTTTTTAAACAAAAAATTAAGCAAATT [CACACA_negctrl_site884],9.795 ± 0.035
4,AGTATAAGCATTATTGTGCACATAATTATAATTTTT,10.4 ± 0.16
5,AGTTTAAATTAAATTACACACTACGAATAATATATT [CACACA_site7811],9.895 ± 0.007
6,TATATATTATATATATGTACATACTTTTTACGTTCA [XGTACX_site2493],11.3 ± 0.72
7,AAATTAATTAAATATACACACATATATAGATATATA [CACACA_site6321],9.53 ± 0.26
8,ACCACATTTTTTTTTGCATGTTGTTTAAAAAAAGGC [TGCATGCA_site137],10.1 ± 0.14
9,AATTATTGTGAAGGGAAAACAAAAAAGTTTATAATT [CACACA_negctrl_site1337],9.995 ± 0.092
10,AACTAATAAAAAAAAAGTACACAATATGTAAATAAC [XGTACX_site5263],11.6 ± 0.91
11,AAGCGAATATATATCACACACAAAAAAATCAGACTA [CACACA_site2108],9.94 ± 0.11
12,AACAAATATATTAACACACAAACATATAAACCAATG [CACACA_site3970],10.1 ± 0.11
13,TAAAACACTCATGGCACACATAAAACATTTTTATGA [CACACA_site3574],10.2 ± 0.31
14,TATATATAATATATATGTACATAATATATTTTATAT [XGTACX_site2909],11.2 ± 0.73
15,ATATATTTTTTTTTTTGTACGTATATTTATATAATT [XGTACX_site8719],11.4 ± 0.69
16,GAAAGAAAGAAAGAAAGTACATATAAAAATATACAT [XGTACX_site7299],11.2 ± 0.88
17,TAAAGATATAAATGCACACGTATTAAAAAAAAAATA [CACACA_site952],10.29 ± 0.057
18,TTATCATTACATGAGTGTACATTATTATATTTTTTT [XGTACX_site7845],11 ± 0.5
19,TAATATGAATATATATGTACATACAATTTGTTATAT [XGTACX_site5815],11.2 ± 0.51
20,ATTAAATGTATGACTTGTACATAAAATAAAAAAAAA [XGTACX_site6555],10.9 ± 0.54
21,ATGATAGTAATTAATAGTACTTTTTTTGATACAAAA [XGTACX_site4288],11.3 ± 0.82
22,TCGTGTTTTAAAAAAATGAAGAAAAGTAAAAAAAAA [XGTACX_negctrl_site23],9.97 ± 0.18

row,Sequence,gcPBM binding intensity (ln)
1,TGAATCTATATACAGGTGCGTAAAAAATAACTTATA,10.2 ± 0.34
2,ATTAGTGACATTATTACACACAAAAGAAAACAGAAA [CACACA_site3984],10.23 ± 0.071
3,AAAAAAAAGGAAAAGGGTACAAAACCATACTTACAT [XGTACX_site4783],11 ± 0.67
4,CAAGAATTAAAATAAAGTACAAAAGTAACAACTTTT [XGTACX_site1474],11.2 ± 0.64
5,ATCTCTACAAAGTGCACACACGTAAAAACATATATA [CACACA_site6046],10.6 ± 0.52
6,ATTTTCCTTTAATTATGTACTTATGTAATAATAATG [XGTACX_site2612],11.3 ± 0.91
7,TGTATGATTATGTTGTGTACGTAAAATATGAAAAAT [XGTACX_site1720],11.5 ± 0.89
8,GTATCATAAAAGTATACACACATACATACATATGTA [CACACA_site5456],10.3 ± 0.19
9,GCACACATATAATTAAACATATATTTGTATTATTTT [GTGCAC_negctrl_site327],9.61 ± 0.27
10,AATATTTATGGGTGCACACAAACATACATATATATA [CACACA_site3395],10.7 ± 0.5
11,ATGTTGAAAGGAAAAAATAATAAAATCGATATATTA [CACACA_negctrl_site549],9.66 ± 0.15
12,AAAAAAAAGAATAGAGCATGCAAAATATATGAAATA [TGCATGCA_site933],9.57 ± 0.34
13,CCTTACTTCTTATAAAGTACCCAATGATATACATTA [XGTACX_site1554],11 ± 0.64
14,TATCCTAATGCTACCACACACACAAAAACAAATAAT [CACACA_site2609],10.5 ± 0.45
15,TTTTAATGTATATTTTGTACGTATTATTAATATTCG [XGTACX_site8453],11.3 ± 0.81
16,TTTTTAATTTTGTGGGTGCTTTCGTGTTATTATATA,10.29 ± 0.085
17,TTTTAAATTGGAGTGGGCAGATTGATATTATTCTTC [GTGCAC_negctrl_site191],10.2 ± 0.14
18,AAAAATAAAATATATACACACATATATATATATATA [CACACA_site2943],10 ± 0.49
19,ACATATATATATATGTGTACATATTTATACAACAAT [XGTACX_site6660],11.6 ± 0.78
20,TACATAAATTAAAACACACACACACTAGAAAAAAAA [CACACA_site5278],10.2 ± 0.28
21,TTTTACTAAATATATACACACATTATACAGATATAT [CACACA_site5765],10.2 ± 0.27
22,AGGAAATTTGTTATTGCACACAAATTTTTCTTTTTT [CACACA_site8732],9.87 ± 0.071
